# According to article PMC4336329 (PLoS ONE, 2015):
# The campaign covered roughly 310,000 compounds. About 2,200 (0.71%) showed an effect of 50% or more. The effect is printed as a negative number. Some of the results follow.
# Molecular target: human ether-à-go-go-related gene (hERG) potassium channel (human, UniProt Q12809)
# Experiment: primary screen, population patch clamp on CHO cells stably expressing hERG
# human ether-à-go-go-related gene (hERG) potassium channel, sequence (Q12809 whole entry, looked up): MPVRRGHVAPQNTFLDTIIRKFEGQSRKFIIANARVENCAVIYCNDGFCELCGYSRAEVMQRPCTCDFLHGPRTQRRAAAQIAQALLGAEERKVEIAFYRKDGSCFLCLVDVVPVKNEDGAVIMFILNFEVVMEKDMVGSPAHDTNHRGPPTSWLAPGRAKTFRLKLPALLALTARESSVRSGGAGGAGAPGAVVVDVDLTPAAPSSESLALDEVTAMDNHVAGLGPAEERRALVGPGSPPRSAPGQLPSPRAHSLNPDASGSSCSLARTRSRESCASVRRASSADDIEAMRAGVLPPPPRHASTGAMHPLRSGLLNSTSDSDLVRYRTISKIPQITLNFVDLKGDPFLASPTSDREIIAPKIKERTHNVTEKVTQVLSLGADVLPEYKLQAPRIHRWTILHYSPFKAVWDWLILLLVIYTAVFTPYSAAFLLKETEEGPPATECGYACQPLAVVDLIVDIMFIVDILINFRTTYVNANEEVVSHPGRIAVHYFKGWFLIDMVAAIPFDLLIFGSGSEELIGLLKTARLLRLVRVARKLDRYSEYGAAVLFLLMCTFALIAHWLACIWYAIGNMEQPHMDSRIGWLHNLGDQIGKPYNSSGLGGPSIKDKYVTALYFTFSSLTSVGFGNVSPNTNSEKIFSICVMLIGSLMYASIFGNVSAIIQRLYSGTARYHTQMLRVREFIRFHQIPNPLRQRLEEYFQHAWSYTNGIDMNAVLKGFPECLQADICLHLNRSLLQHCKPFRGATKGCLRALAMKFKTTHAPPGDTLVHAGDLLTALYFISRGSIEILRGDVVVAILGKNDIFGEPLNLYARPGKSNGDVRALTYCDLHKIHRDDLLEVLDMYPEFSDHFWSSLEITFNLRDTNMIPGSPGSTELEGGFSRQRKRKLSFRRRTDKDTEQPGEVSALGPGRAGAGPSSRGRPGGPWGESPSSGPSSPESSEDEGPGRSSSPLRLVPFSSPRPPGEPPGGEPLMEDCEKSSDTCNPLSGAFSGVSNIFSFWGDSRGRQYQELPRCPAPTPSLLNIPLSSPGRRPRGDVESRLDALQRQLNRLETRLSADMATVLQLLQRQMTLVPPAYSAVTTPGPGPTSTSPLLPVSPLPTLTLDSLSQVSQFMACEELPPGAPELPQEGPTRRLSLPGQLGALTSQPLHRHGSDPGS
row,Compound,"hERG current change (%, negative = inhibition) at 1uM [%]"
1,O=S(CC(O)COCc1ccc(Cl)cc1)c1ccccn1 (centres unmarked),18.6
2,CC(=O)Nc1ccc(NC(=O)C(C)OC(=O)CNS(=O)(=O)c2cccc(Cl)c2)cc1 (centres unmarked),24.9
3,CC(C)NC(=O)c1ccc(Sc2ccccc2)c([N+](=O)[O-])c1,7.04
4,COc1cccc(C2NC(CC(C)C)(C(=O)O)C3C(=O)N(Cc4ccccc4)C(=O)C23)c1O (centres unmarked),-0.961
5,CCCNC(=O)c1oc2ccc3c(c2c1C)C(=O)CC(C)(C)O3,13.9
6,O=C(Nc1cccc(O)c1)c1ccc(NC(=O)C2CCCO2)cc1 (centres unmarked),15.4
7,CC(NC(=O)C1CCN(C(=O)[C@@H]2Cc3ccccc3CN2C(=O)OC(C)(C)C)CC1)c1ccccc1 (some centres unmarked),9.81
8,Cn1cc(Br)cc2nc(C(F)(F)F)nc1-2,11.2
9,Cc1cccc(C)c1NC(=O)C(NC(=O)CN1C(=O)c2ccccc2C1=O)c1ccccc1 (centres unmarked),9.56
10,N#Cc1c(N)nc2c(c1-c1ccccc1)CCCC2,5.7
11,COC(=O)c1ccc(CO/N=C/c2ccc(OC)cc2OC)cc1,11.5
12,CC(Sc1nc2c(c(=O)[nH]1)CCCC2)C(=O)Nc1ccc(Br)cn1 (centres unmarked),4.65
13,CCN1CCN(Cc2cc(=O)oc3ccc(Cl)cc23)CC1,8.55
14,CCOc1cc(C(=O)OCC(=O)Nc2cccc(C)c2)ccc1OCC(=O)N1CCOCC1,16.4
15,CC(c1ccccc1)C1OCC(C[N+]2(C)CCCCC2)O1.[I-] (centres unmarked),15.1
16,CCOC(=O)N1CCN(C(=O)c2ccc3nc(-c4ccccc4)c(-c4ccccc4)nc3c2)CC1,6.99
17,CCOC(=O)/C=c1\s/c(=C\c2ccc(C#N)cc2)c(=O)n1CC(=O)NCc1ccco1,-1.93
18,O=C(COC(=O)c1cc(=O)[nH]c2ccccc12)c1ccc(Br)cc1,8.04
19,COc1cccc(C(C(=O)NCc2ccccc2)N(C(=O)c2csnn2)C2CC2)c1 (centres unmarked),8.82
20,Cn1nc(C(=O)N2CCc3ccccc3C2)c2ccccc2c1=O,8.45
21,O=[N+]([O-])c1cc(CS(=O)(=O)Oc2ccc(Cl)cc2)c(O)c([N+](=O)[O-])c1,13.5
22,COC(=O)C1C(=O)NCC1c1ccccc1 (centres unmarked),18.8
23,CC(C)COP(=O)(OCC(C)C)C(O)c1ccccc1F (centres unmarked),5.11

row,Compound,"hERG current change (%, negative = inhibition) at 1uM [%]"
1,Cc1noc(C)c1CSc1ncnc2sc3c(c12)CCCCC3,9.86
2,O=C(CSc1nnnn1-c1ccc(C(=O)O)cc1)NC1CCCCC1,-6.2
3,O=C1CC(c2ccc(F)cc2)CC(O)=C1C1NCCc2ccccc21 (centres unmarked),16.3
4,COc1ccccc1-c1ccc(SCc2ccccc2F)nn1,6.4
5,Cc1ccc(C2N(c3cc(C)on3)C(=O)C3CCCN32)cc1 (centres unmarked),14.9
6,Cc1cccc2nc3ccccc3cc12,12.6
7,O=C(Cc1ccc(F)cc1)Nc1ccc2[nH]ncc2c1,13.4
8,O=C(NCCN1CCCC1)c1ccc2c(c1)N(Cc1ccccc1)C(=O)c1ccccc1S2(=O)=O,13.1
9,COc1cccc(/C=N/NC(=O)CCCc2ccc(OC)c(C)c2)c1,2.8
10,Cc1onc(-c2ccccc2)c1-c1nc2cc(Cl)ccc2c(=O)o1,9.04
11,COc1ccc(NC(=O)C2=C(C)NC(=S)NC2c2ccc(O)c(OC)c2)cc1 (centres unmarked),13.9
12,Cc1cccc(OCC(=O)O/N=C(\N)c2ccncc2)c1,11.2
13,O=C(CS(=O)(=O)c1c[nH]c2ccccc12)N1CCCc2ccccc21,24.2
14,CCCc1cc(=O)oc2c(CNc3ccc(OCC)cc3)c(O)ccc12.Cl,8.53
15,COCCn1c(N)c(N(Cc2ccccc2)C(=O)C2CCCCC2)c(=O)[nH]c1=O,8.74
16,COc1ccc(NC(=O)CNC(=O)c2cccs2)cc1Cl,13.6
17,CC(Oc1ccc(F)cc1)C(=O)N1CCN(c2ncccn2)CC1 (centres unmarked),1.96
18,Cc1nn(C)c(Cl)c1/C=C/C(=O)O,15.2
19,CN(C)c1ccc(C2CC(=O)C=C(Nc3ccccc3N)C2)cc1 (centres unmarked),13.8
20,CSc1nc(C)c(Oc2ccccc2)c(=O)n1C,10.4
21,O=C(CSc1nc2ccccc2o1)NC(=O)NCc1ccccc1,-0.561
22,Cc1ccc(/C=C/S(=O)(=O)NCC(=O)OCC(=O)N2CC(=O)Nc3ccccc32)cc1,3.46
23,Cc1ccc(C(=O)N/C(=C/c2ccco2)C(=O)NCc2ccco2)cc1,7.08

row,Compound,"hERG current change (%, negative = inhibition) at 1uM [%]"
1,CC(C)(C)c1cc(OC(=O)c2ccncc2)ccc1O,3.13
2,Br.N=C1c2ccccc2CN1NC(=O)c1ccc(Br)cc1,7.36
3,CCC(C(=O)O)n1c2ccccc2c2cn[nH]c(=O)c21 (centres unmarked),15.7
4,Cc1nc(N)sc1C(=O)N1N=N1,21.1
5,Cc1cccc(CC(=O)NCC2CCCCC2)c1,9.8
6,O=C1CC2(CCN(S(=O)(=O)c3ccccc3)CC2)Oc2ccccc21,-19.4
7,Cl.Nc1cc(Cl)ccc1N1CCCCCC1,2.95
8,CC12CN3CCN(C1)CC(C)(C3)C2=NO,9.52
9,C(=N\Nc1nc2ccccc2[nH]1)/c1c[nH]c2ccccc12,0.968
10,COC(=O)C1=C(c2ccc(F)cc2F)C[C@@H]2CC[C@H]1N2C(=O)NCCOc1ccccc1Cl,9.59
11,CS(=O)(=O)N1CCc2cc(S(=O)(=O)NCCNS(=O)(=O)c3ccc4c(c3)CCN4S(C)(=O)=O)ccc21,11.4
12,CC(C)c1csc(CN2CCC(N3CCC(C(=O)N4CCOCC4)CC3)CC2)n1,-2.34
13,CCC1CCCCN1S(=O)(=O)c1ccc([N+](=O)[O-])cc1 (centres unmarked),0.664
14,Cc1cc(F)ccc1S(=O)(=O)N1CCC2(CC1)OCCN2S(=O)(=O)c1cccs1,2.45
15,CC(Sc1nncs1)C(=O)NCc1ccc2c(c1)OCO2 (centres unmarked),11.6
16,CCOc1ccc(C)cc1S(=O)(=O)N1CCCCC1,0.865
17,CS(=O)(=O)N(CC(=O)NCC1CCCO1)Cc1ccc(Cl)cc1 (centres unmarked),13.9
18,CCCCn1c(N)c(N(CCOC)C(=O)c2ccc3c(c2)C(=O)N(c2ccccc2C)C3=O)c(=O)[nH]c1=O,11.8
19,CC(=O)Nc1ccc(NS(=O)(=O)c2ccc(Cl)c(C(=O)O)c2)cc1,8.79
20,CO/N=C(\c1nonc1N)N1CCN(c2ccc(Cl)cc2[N+](=O)[O-])CC1,14.6
21,COc1ccc(CCNC(=O)c2cc(-c3ccc(Cl)c(Cl)c3)oc2C)cc1,5.31
22,O=C(NNS(=O)(=O)c1ccccc1C(F)(F)F)c1cccc(S(=O)(=O)Nc2ccccc2Cl)c1,8.56
23,Cc1ccc(OCC(=O)NC(C)c2ccc(Cl)c(Cl)c2)c([N+](=O)[O-])n1 (centres unmarked),6.7

row,Compound,"hERG current change (%, negative = inhibition) at 1uM [%]"
1,CCCNC(=O)C(Cc1ccccc1)NC(=O)c1ccc(C(C)(C)C)cc1 (centres unmarked),-3.9
2,COc1ccccc1N1CCN(/N=C\c2sccc2C)CC1,7.51
3,O=C(NNC(=S)NC1CC2C=CC1C2)c1cccnc1 (centres unmarked),15.3
4,Cc1c(C(=O)NCCSCc2c(F)cccc2Cl)cnn1-c1ccc(F)cc1,5.51
5,O=C(N/N=C\c1ccc(F)cc1)c1ccc(Cn2cc(Br)c([N+](=O)[O-])n2)o1,-22.6
6,O=[N+]([O-])c1ccc(C=Nc2ccc(Cl)cc2Cl)s1,-2.21
7,O=C(NCC1CCCO1)C1CCN(S(=O)(=O)Cc2ccccc2)CC1 (centres unmarked),11.1
8,Cc1nn(C(C)CC(=O)O)c(C)c1Br (centres unmarked),14.5
9,CC(OC(=O)c1cccc(NS(C)(=O)=O)c1)C(=O)Nc1ccc2c(c1)OCO2 (centres unmarked),-17.5
10,COc1ccccc1CNC(=O)c1cc(-c2cccnc2)nc2ccccc12,5.47
11,CC(=O)N(c1cccc(Br)c1)c1nc(C)cc(C)c1C#N,15.6
12,CC(C)(C)n1nnnc1C(c1cccnc1)N(Cc1ccccc1)Cc1cccs1 (centres unmarked),16.8
13,O=C(Cn1c(NCCO)nc2ccccc21)c1ccccc1,12.9
14,Cc1cccc(C(C)C)c1NC(=O)Cc1ccc(S(=O)(=O)N2CCOCC2)s1,-4.08
15,CC(=O)c1ccc(N2C(=NC(=O)C(C)C)SC3CS(=O)(=O)CC32)cc1 (centres unmarked),9.13
16,CN(Cc1ccccc1)C(=O)Cn1cccc1C(=O)c1ccccc1,14.5
17,COc1ccc(NC(=O)CCN2CCN(S(=O)(=O)c3ccc(F)cc3)CC2)cc1,7.39
18,COc1ccc(NC(=O)c2cc(-c3ccccc3)on2)cc1OC,12.6
19,O=C(CCC(=O)NC1CCN(Cc2ccccc2)CC1)NCc1ccco1,4.92
20,CCn1c(NN=O)nc2ccccc21,9.1
